The supplement of paper PMC12217912
The list shows a part of the results. Sequences were assembled here from the parent chain. Inactive controls read about 0.05.

B1: TEV protease; numbered along this chain (parent)
chain: MGESLFKGPRDYNPISSSICHLTNESDGHTTSLYGIGFGPFIITNKHLFRRNNGTLVVQSLHGVFKVKDTTTLQQHLVDGRDMIIIRMPKDFPPFPQKLKFREPQREERICLVTTNFQTKSMSSMVSDTSCTFPSGDGIFWKHWIQTKDGQCGSPLVSTRDGFIVGIHSASNFTNTNNYFTSVPKNFMELLTNQEAQQWVSGWRLNADSVLWGGHKVFMVKPEEPFQPVKEATQL

Variants of: B1
Assay: raw area under fraction-flipped curve 0-4 h after induction (AUC4h, not background-subtracted), DNA-recorder readout of cleavage of the substrate (dimensionless); higher = more cleavage of the substrate by the protease variant
Conditions: temperature: 34 °C; time window: 0-4 h after rhamnose induction
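Also: Bxb1 expression induced with 0.2% (w/v) L-rhamnose at OD600 near 0.5, cultures sampled hourly, flipped fraction per protease–substrate barcode pair counted by paired-end Illumina sequencing.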

Variant | area with substrate CNLYFQS | area with substrate DNLYFQS | area with substrate GNLYFQS | area with substrate HNLYFQS | area with substrate KNLYFQS | area with substrate LNLYFQS | area with substrate MNLYFQS | area with substrate NNLYFQS | area with substrate PNLYFQS | area with substrate TNLYFQS | area with substrate YNLYFQS | area with substrate INLYFQS | area with substrate RNLYFQS | area with substrate SNLYFQS | area with substrate WNLYFQS | area with substrate FNLYFQS | area with substrate VNLYFQS | area with substrate QNLYFQS
MGESLFKGPRDYNPISSSICHLTNESDGHTTSLYGIGFGPFIITNKHLFRRNNGTLVVQSLHGVFKVKDTTTLQQHLVDGRDMIIIRMPKDFPPFPQKLKFREPQREERICLVTTNFQTKSMSSMVSDTSCTFPSGFGIFWKHWIQTKDGQCGSPLVSTRDGFIVGIHSASNFTNTNNYFTSVPKNFMELLTNQEAQQWVSGWRLNADSVLWGGHKVFMVKPEEPFQPVKEATQL [D137F] | 0.0604 | 0.0728 | 0.0464 | 0.0662 | 0.0713 | 0.0536 | 0.0556 | 0.053 | 0.06 | 0.0569 | 0.0612 | – | – | – | – | – | – | –
MGESLFKGPRDYNPISSSICHLTNESDGHTTSLYGIGFGPFIITNKHLFRRNNGTLVVQSLHGVFKVKDTTTLQQHLVDGRDMIIIRMPKDFPPFPQKLKFREPQREERICLVTTNFQTKSMSSMVSDTSCTFPSGVGIFWKHWIQTKDGQCGSPLVSTRDGFIVGIHSASNFTNTNNYFTSVPKNFMELLTNQEAQQWVSGWRLNADSVLWGGHKVFMVKPEEPFQPVKEATQL [D137V] | 0.0929 | 0.0783 | – | 0.0607 | – | 0.08 | – | – | – | 0.0545 | – | 0.0745 | 0.0714 | 0.0683 | 0.0679 | – | – | –
MGESLFKGPRDYNPISSSICHLTNESDGHTTSLYGIGFGPFIITNKHLFRRNNGTLVVQSLHGVFKVKDTTTLQQHLVDGRDMIIIRMPKDFPPFPQKLKFREPQREERICLVTTNFQTKSMSSMVSDTSCTFPSGDGVFWKHWIQTKDGQCGSPLVSTRDGFIVGIHSASNFTNTNNYFTSVPKNFMELLTNQEAQQWVSGWRLNADSVLWGGHKVFMVKPEEPFQPVKEATQL [I139V] | 0.0681 | 0.105 | – | 0.0446 | 0.0685 | 0.0733 | 0.0722 | 0.0604 | 0.0609 | – | 0.0639 | 0.0649 | – | – | 0.0626 | 0.0648 | 0.0546 | –
MGESLFKGPRDYNPISSSICHLTNESDGHTTSLYGIGFGPFIITNKHLFRRNNGTLVVQSLHGVFKVKDTTTLQQHLVDGRDMIIIRMPKDFPPFPQKLKFREPQREERICLVTTNFQTKSMSSMVSDTSCTFPSGDGILWKHWIQTKDGQCGSPLVSTRDGFIVGIHSASNFTNTNNYFTSVPKNFMELLTNQEAQQWVSGWRLNADSVLWGGHKVFMVKPEEPFQPVKEATQL [F140L] | 0.0538 | 0.0621 | – | 0.0617 | 0.0683 | 0.0513 | 0.0663 | – | – | 0.0676 | 0.0654 | 0.0528 | – | 0.0554 | 0.0555 | – | 0.0532 | –
MGESLFKGPRDYNPISSSICHLTNESDGHTTSLYGIGFGPFIITNKHLFRRNNGTLVVQSLHGVFKVKDTTTLQQHLVDGRDMIIIRMPKDFPPFPQKLKFREPQREERICLVTTNFQTKSMSSMVSDTSCTFPSGDGIVWKHWIQTKDGQCGSPLVSTRDGFIVGIHSASNFTNTNNYFTSVPKNFMELLTNQEAQQWVSGWRLNADSVLWGGHKVFMVKPEEPFQPVKEATQL [F140V] | 0.0637 | 0.0601 | 0.0806 | 0.0507 | 0.0581 | 0.0616 | 0.0661 | 0.0652 | 0.0629 | 0.0571 | 0.0543 | 0.0534 | 0.0558 | 0.0565 | 0.0627 | 0.0708 | – | –
MGESLFKGPRDYNPISSSICHLTNESDGHTTSLYGIGFGPFIITNKHLFRRNNGTLVVQSLHGVFKVKDTTTLQQHLVDGRDMIIIRMPKDFPPFPQKLKFREPQREERICLVTTNFQTKSMSSMVSDTSCTFPSGDGIWWKHWIQTKDGQCGSPLVSTRDGFIVGIHSASNFTNTNNYFTSVPKNFMELLTNQEAQQWVSGWRLNADSVLWGGHKVFMVKPEEPFQPVKEATQL [F140W] | 0.0816 | 0.0362 | – | 0.0499 | – | – | – | – | – | – | 0.0711 | – | – | – | – | – | – | –
MGESLFKGPRDYNPISSSICHLTNESDGHTTSLYGIGFGPFIITNKHLFRRNNGTLVVQSLHGVFKVKDTTTLQQHLVDGRDMIIIRMPKDFPPFPQKLKFREPQREERICLVTTNFQTKSMSSMVSDTSCTFPSGDGIFWWHWIQTKDGQCGSPLVSTRDGFIVGIHSASNFTNTNNYFTSVPKNFMELLTNQEAQQWVSGWRLNADSVLWGGHKVFMVKPEEPFQPVKEATQL [K142W] | 0.0732 | 0.072 | 0.0699 | – | – | 0.062 | 0.0525 | 0.0815 | – | – | 0.0563 | 0.067 | – | 0.0508 | – | – | – | –
MGESLFKGPRDYNPISSSICHLTNESDGHTTSLYGIGFGPFIITNKHLFRRNNGTLVVQSLHGVFKVKDTTTLQQHLVDGRDMIIIRMPKDFPPFPQKLKFREPQREERICLVTTNFQTKSMSSMVSDTSCTFPSGDGIFWKGWIQTKDGQCGSPLVSTRDGFIVGIHSASNFTNTNNYFTSVPKNFMELLTNQEAQQWVSGWRLNADSVLWGGHKVFMVKPEEPFQPVKEATQL [H143G] | 0.0739 | 0.0735 | – | – | 0.0679 | – | 0.0492 | – | – | – | 0.0421 | – | – | 0.0794 | 0.0625 | – | 0.0521 | 0.0641
MGESLFKGPRDYNPISSSICHLTNESDGHTTSLYGIGFGPFIITNKHLFRRNNGTLVVQSLHGVFKVKDTTTLQQHLVDGRDMIIIRMPKDFPPFPQKLKFREPQREERICLVTTNFQTKSMSSMVSDTSCTFPSGDGIFWKHWVQTKDGQCGSPLVSTRDGFIVGIHSASNFTNTNNYFTSVPKNFMELLTNQEAQQWVSGWRLNADSVLWGGHKVFMVKPEEPFQPVKEATQL [I145V] | 0.0668 | 0.1 | – | 0.0589 | 0.0715 | 0.0665 | – | – | 0.0804 | 0.0783 | 0.0563 | – | – | – | – | 0.0681 | – | 0.0757
MGESLFKGPRDYNPISSSICHLTNESDGHTTSLYGIGFGPFIITNKHLFRRNNGTLVVQSLHGVFKVKDTTTLQQHLVDGRDMIIIRMPKDFPPFPQKLKFREPQREERICLVTTNFQTKSMSSMVSDTSCTFPSGDGIFWKHWIDTKDGQCGSPLVSTRDGFIVGIHSASNFTNTNNYFTSVPKNFMELLTNQEAQQWVSGWRLNADSVLWGGHKVFMVKPEEPFQPVKEATQL [Q146D] | 0.0762 | 0.0786 | – | 0.0555 | – | 0.0646 | 0.059 | – | – | 0.068 | 0.0645 | 0.0856 | – | 0.0624 | 0.046 | – | – | 0.0664
